Experimental data published in paper PMC12136788.
This is one part of the list.

T1: UNK ZnF1-3 (human, UniProt Q9C0B0 31-174)
T1 sequence: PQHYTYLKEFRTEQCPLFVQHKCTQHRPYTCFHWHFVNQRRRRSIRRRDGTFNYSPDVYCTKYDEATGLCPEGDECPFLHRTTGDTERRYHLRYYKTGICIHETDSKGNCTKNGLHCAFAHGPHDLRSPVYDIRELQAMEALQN

B1: chr7:65617436:65617437:+_ENSG00000241258_ENST00000415001|hu_hu|motif|central (ssRNA)
RNA: GGGAGUUCUACAGUCCGACGAUCUUCUUCUCCCCAAGGCACAAAUAUUUCUUUUUAACUUAUUUUUGUGAUGUACCCAACGGACCACAAAGCCAGGCCUGCUGGGAUGAGGAUAAAAAUCAAAUAAACAAUCCUCUCAACGUCCAACAGAGGAUUGAGCAUCA
B2: chr16:71807222:71807223:-_ENSG00000166747_ENST00000299980|perfect_dup|FALSE|FALSE (ssRNA)
RNA: GGGAGUUCUACAGUCCGACGAUCUCCUGCAAGAUCUCUGCACAUCUCUGAGGAGCCCAUGCAGCCGAGGGUACAAAGUGCUAACCCCUGUACGAAUUGCGUGCUAUGAUUAAGAUCAUUCUUGAUACAGUUGGUCAUGAGAAGCAACAGAGGAUUGAGCAUCA
B3: chr19:8913615:8913616:-_ENSMUSG00000071658_ENSMUST00000096259|mus_hu|mus_mus_mus_hu_False|1_108 (ssRNA)
RNA: GGGAGUUCUACAGUCCGACGAUCAGGGGGGCACCAACUUCUGCCUGAAAUGGGUGCCCCACCCAGUAGGGAGUUGCAGCUGAAAGUAUCUGAUGCAGAAGCAGUGACUAUACGAAAGGAGGCCCCUGGGGAGGGCCCGAGAUCCAACAGAGGAUUGAGCAUCA
B4: chr6:13786029:13786030:-_ENSMUSG00000048216_ENSMUST00000115492|mus_hu|FALSE|FALSE (ssRNA)
RNA: GGGAGUUCUACAGUCCGACGAUCAAAAACUCUCCAAUAACAGGCCACCAGGUAGGGGCCCCACAAGGUUAGAAACAGAAAAGUCAUUAUAUAGAACAUUCUGCUGAUUCUUUUCUCCAUUUUGAACUCGUCUAAGACCAAUAGCAACAGAGGAUUGAGCAUCA
B5: chr8:95500983:95500984:-_ENSG00000164944_ENST00000437199|hu_hu|hu_hu_hu_mus_True|8_58 (ssRNA)
RNA: GGGAGUUCUACAGUCCGACGAUCAGAACACAUCUAUCGAGUAAAGGACCGUACAUGACGGCCUCUACCACUGCCUCCCACUAACAACUUUCCUCUCGAGCCUCCACUGCCGCUAUUUGUACUAGCCCCAGGAAGGUCCAGGCCCAACAGAGGAUUGAGCAUCA
B6: chr4:17845017:17845018:+_ENSG00000109805_ENST00000514176|hu_mus|hu_hu_hu_mus_False|1_98 (ssRNA)
RNA: GGGAGUUCUACAGUCCGACGAUCGCUCUCUUAACUUGAUCUUCAUUUAAGGAACUCUGCAAGGUUAAGUUUACUUUUCUGUAGCGCAGCUGUUUUGGCUCGUCUGGGUAAUCUCAUCUUCAUUUCUGAUGGUGGUUUGGAACUCAACAGAGGAUUGAGCAUCA

biological target: T1, UNK ZnF1-3; test: nsRBNS (natural sequence RNA bind-n-seq); RBNS binding buffer (assumed for nsRBNS): 25 mM Tris pH 7.5, 150 mM KCl, 3 mM MgCl2, 0.01% Triton X-100, 500 ug/ml BSA, 20 U/ml SUPERase-In, 4 C; UNK is unkempt and MSI1 is Musashi-1; names of the RNAs are library labels; protein concentration not given here; high values mean tight binding

| Binder | binding signal [enrichment R] |
| --- | --- |
| B1 | 1.26 |
| B2 | 1.22 |
| B3 | 0.944 |
| B4 | 1.01 |
| B5 | 1.07 |
| B6 | 0.465 |
